# Laboratory results taken from PubChem BioAssay AID1468 (National Center for Advancing Translational Sciences (NCATS), 2008).
# The campaign covered roughly 280,000 compounds. About 1,100 (0.39%) were called active. Inconclusive means that the source gave no clear call. Such entries were picked first, then a sample of the others. The call rests on the fitted dose curve; in most records, active means well fitted inhibition curve with a large enough effect; inconclusive means small, poorly fitted or top-dose-only effect, or effect the other way; inactive means flat fitted curve, though single readings scatter. Potencies of inconclusive entries are left out as doubtful fits.
# Molecular target: Microtubule-associated protein tau (Homo sapiens) (UniProt P10636)
# UniProt P10636, sequence (P10636 whole entry, looked up): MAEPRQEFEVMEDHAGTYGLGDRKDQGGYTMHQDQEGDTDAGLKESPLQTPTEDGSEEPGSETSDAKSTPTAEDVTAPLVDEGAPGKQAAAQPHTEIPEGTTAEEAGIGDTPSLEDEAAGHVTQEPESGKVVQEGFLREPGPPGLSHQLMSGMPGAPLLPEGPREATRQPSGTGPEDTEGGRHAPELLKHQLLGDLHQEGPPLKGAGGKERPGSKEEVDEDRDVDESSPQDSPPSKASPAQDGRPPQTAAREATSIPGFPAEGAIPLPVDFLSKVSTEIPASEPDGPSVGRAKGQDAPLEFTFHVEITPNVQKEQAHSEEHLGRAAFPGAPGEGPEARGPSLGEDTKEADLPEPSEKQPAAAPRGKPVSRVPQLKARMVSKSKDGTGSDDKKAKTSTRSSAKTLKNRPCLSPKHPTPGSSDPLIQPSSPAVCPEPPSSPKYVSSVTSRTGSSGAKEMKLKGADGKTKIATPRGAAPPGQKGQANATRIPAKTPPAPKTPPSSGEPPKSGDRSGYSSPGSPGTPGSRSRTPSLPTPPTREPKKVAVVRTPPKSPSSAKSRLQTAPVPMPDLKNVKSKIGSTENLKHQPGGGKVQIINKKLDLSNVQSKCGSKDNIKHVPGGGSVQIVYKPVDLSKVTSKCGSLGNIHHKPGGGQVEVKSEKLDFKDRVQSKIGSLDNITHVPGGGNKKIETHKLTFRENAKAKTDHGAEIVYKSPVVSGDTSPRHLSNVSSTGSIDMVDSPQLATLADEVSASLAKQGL
# Test: qHTS for Inhibitors of Tau Fibril Formation, Fluorescence Polarization; further: nearly all actives have a fitted effect of over 55% in size
# Conditions: K18 P301L tau heparin fibrillization, Alexa594 FP, 6 h; series mostly up to 57.7 µM
# In short: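 Heparin (20 uM) drove fibril formation of recombinant tau K18 P301L, 15 uM unlabeled with 0.24 uM Alexa 594 label, for 6 hr at 37 C in 100 mM sodium acetate pH 7. Fluorescence polarization (555/632 nm) read 1 hr after 30 uM ThT.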
# Potency means the concentration at half of the fitted maximal effect; tags describe the fitted curve by direction and shape.
row,SMILES,Potency
1,CC(=O)C1=C(C)NC(SCC(=O)Nc2nc3ccccc3s2)=C(C#N)C1c1ccc(Cl)cc1 (centres undefined),"inconclusive [inhibitor, partial curve]"
2,COC(=O)c1ccccc1NC(=S)NC(NC(=O)c1ccco1)C(Cl)(Cl)Cl (centres undefined),"inconclusive [inhibitor, single point]"
3,COc1ccc(C)cc1Nc1nc2c(S(=O)(=O)c3cc(C)ccc3C)nnn2c2ccsc12,inactive
4,O=C(COc1ccc(Cl)cc1)NCCc1csc(-c2ccc(C(F)(F)F)cc2)n1,inactive
5,COCCNc1nc2c(S(=O)(=O)c3ccccc3)nnn2c2ccc(Cl)cc12,"inconclusive [inhibitor, partial curve]"
6,Clc1cc2c(cc1/C=N/Nc1nc(N3CCOCC3)nc(N3CCOCC3)n1)OCO2,"inconclusive [activator, single point]"
7,CCOc1ccc(C(=O)Nc2cccc(NC(=O)c3ccc(C(C)(C)C)cc3)c2)cc1Br,"inconclusive [inhibitor, single point]"
8,O=C(CCn1c2c(c3ccccc31)CCCC2)NNC(=O)c1ccc([N+](=O)[O-])cc1,"inconclusive [activator, partial curve]"
9,CC(C)C(=O)NC(=S)Nc1sc2c(c1C(N)=O)CCCC2,"inconclusive [inhibitor, single point]"
10,CCn1c(COc2ccc(OC)cc2)nnc1SCc1nc2ccccc2c(=O)[nH]1,inactive
11,COc1ccc(OC(C)C(=O)N2CCc3ccccc3C2)cc1 (centres undefined),inactive
12,CC1CCN(C(=O)c2ccc(-n3cnnn3)cc2)CC1,inactive
13,CC1CCN(S(=O)(=O)c2ccc(NC(=O)Cn3nnc(-c4ccccc4F)n3)cc2)CC1,active: 7.94 µM
14,CN=C1S/C(=C\c2ccc(N3CCOCC3)cc2C)C(=O)N1C,inactive
15,COc1cc2c(cc1NC(=O)CSc1ccc(Cl)cc1)oc1ccccc12,"inconclusive [inhibitor, full curve]"
16,COC(=O)c1cc(=O)nc2sc(-c3cccs3)nn12,inactive
17,COc1cccc(NCCC(=O)c2cccc([N+](=O)[O-])c2)c1,"inconclusive [activator, single point]"
18,COC(=O)c1cccc(NC(=O)NC23CC4CC(CC(C4)C2)C3)c1,"inconclusive [inhibitor, single point]"
19,COc1cccc(-c2nnc(SC(C(=O)c3c[nH]c4ccccc34)c3ccccc3)n2C)c1 (centres undefined),"inconclusive [inhibitor, partial curve]"
20,Cc1ccc(NC(=O)CN2C(=O)COc3ccc(S(=O)(=O)NC4CCCC4)cc32)cc1Cl,"inconclusive [inhibitor, partial curve]"
21,CCCCC(=O)N1CCCC(C)C1 (centres undefined),"inconclusive [inhibitor, full curve, poor fit]"
22,Nc1nnc(/C=C/c2ccccc2)s1,inactive
23,Cc1cc(C)c(/C=C/c2onc(C)c2S(=O)(=O)N2CCC(C(=O)NCc3ccccc3Cl)CC2)c(C)c1,inactive

row,SMILES,Potency
1,Oc1ccc(-c2csc(Nc3ncccn3)n2)c(O)c1,"inconclusive [activator, full curve, poor fit]"
2,COc1cc(NC(=O)C(Cc2ccccc2)NS(=O)(=O)c2cccc3nsnc23)cc(OC)c1 (centres undefined),inactive
3,COc1ccccc1NNC(=O)c1cc(C(C)(C)C)nn1Cc1ccccc1,inactive
4,Cc1ccc(Cl)cc1NC(=O)C1CCN(S(=O)(=O)c2cccc3nonc23)CC1,inactive
5,CC(=O)c1cccc(NC(=O)CCc2c(C)nc3c(c(C)nn3-c3ccccc3)c2C)c1,"inconclusive [inhibitor, partial curve]"
6,CC1(C)OC(c2ccccc2)=C/C(=C/C=C2C(=O)c3ccccc3C2=O)O1,"inconclusive [inhibitor, partial curve]"
7,Oc1ccccc1Nc1nc(NCc2ccco2)c2ccccc2n1,inactive
8,CC(=O)Nc1ccc(S(=O)(=O)NCCSCc2c(Cl)cccc2Cl)cc1,"inconclusive [inhibitor, full curve, poor fit]"
9,COc1ccccc1C(=O)N(Cc1nc(-c2ccc(Cl)cc2)no1)C(C)C,"inconclusive [activator, partial curve, poor fit]"
10,Cc1ccc(Cn2c(CN3CCOCC3)nc3c2c(=O)n(C)c(=O)n3C)cc1,inactive
11,O=C(Cn1c(=O)n(-c2cccc(Cl)c2)c(=O)c2sc3ccccc3c21)NC1CCCCC1,"inconclusive [inhibitor, partial curve]"
12,O=C(c1ccccc1)c1ccc2nc(-c3ccco3)c(-c3ccco3)nc2c1,"inconclusive [inhibitor, single point]"
13,O=C(OC1CCOC1=O)c1ccc(-c2nc3ccccc3s2)s1 (centres undefined),"inconclusive [inhibitor, partial curve]"
14,CC(C)(C)c1ccc(C(=O)NCc2cccnc2)cc1,"inconclusive [activator, single point]"
15,CN1CCN(C(=O)CCN2C(=O)/C(=C\c3ccc(Cl)cc3Cl)SC2=S)CC1,"inconclusive [activator, full curve, poor fit]"
16,Cc1ccc(S(=O)(=O)Oc2ccc(/C=N/NC(=O)c3c(Cl)cnn3C)cc2)cc1,"inconclusive [inhibitor, single point]"
17,O=C(c1cc(-c2ccccc2O)on1)N1CCCCC1,inactive
18,CC1Cc2ccccc2N1S(=O)(=O)c1cccc(C(=O)Nc2cccnc2)c1 (centres undefined),"inconclusive [inhibitor, single point]"
19,CCOc1ccc(C(=O)Nc2ccc3nn(-c4ccc(OC)c(Cl)c4)nc3c2)cc1,"inconclusive [inhibitor, partial curve]"
20,N#Cc1c(C(F)(F)F)cc(-c2cccs2)nc1SCC(=O)Nc1ccccc1F,inactive
21,CCNC(=S)Nc1ccc(-c2nc3ccccc3[nH]2)cc1,"inconclusive [inhibitor, full curve, poor fit]"
22,Cc1cc(C)cc(NC(=O)CSc2oc(-c3ccccc3)nc2S(=O)(=O)c2ccccc2)c1,"inconclusive [inhibitor, partial curve]"
23,COc1ccc(C2C(C(=O)c3sc(C)nc3C)=C(O)C(=O)N2CCN(C)C)cc1 (centres undefined),inactive

row,SMILES,Potency
1,CCCCCC(=O)N1CC2(C)CN(C(=O)CCCCC)CC(C)(C1)C2=O,inactive
2,Cc1ccc(OCC(=O)Nc2cccc(OCc3cc(=O)n4cccc(C)c4n3)c2)cc1C,inactive
3,O=C1Cc2cc(CCN3CCN(c4nsc5ccccc45)CC3)c(Cl)cc2N1,"inconclusive [inhibitor, partial curve, poor fit]"
4,N#CC1=C(N)N=C(SCc2ccccc2)C(C(N)=O)C12CCCCC2 (centres undefined),inactive
5,Cc1cc(C)cc(NS(=O)(=O)c2ccc3[nH]cc(C(=O)NC4CCCCC4)c(=O)c3c2)c1,active: 7.94 µM
6,COCCCNC(=O)c1ccc(-n2c(-c3ccccc3)cc3c2CCCC3)cc1,"inconclusive [inhibitor, single point]"
7,Cc1ccccc1NC(=O)c1cccc2nc3ccccc3nc12,"inconclusive [activator, single point]"
8,C/C(=N/NS(=O)(=O)c1ccc(Cl)cc1)c1cccc(NC(=O)c2ccc(Cl)cc2Cl)c1,inactive
9,Cc1cccc(NC(=O)Cn2c(=O)n(Cc3ccccc3)c(=O)c3c(C)c(C)sc32)c1,"inconclusive [inhibitor, partial curve]"
10,COc1ccccc1NS(=O)(=O)c1cc(NC(=O)c2cccs2)ccc1N1CCOCC1,"inconclusive [inhibitor, single point]"
11,Oc1ccc(N=Cc2cc(Br)c(N3CCOCC3)o2)cc1,"inconclusive [inhibitor, full curve]"
12,COc1ccc(NC(=O)CSc2nnc(CNC(=O)COc3ccc(Cl)cc3)o2)cc1,"inconclusive [inhibitor, single point]"
13,COc1ccc(Oc2cccc(Cl)c2CNC(=O)c2ccccc2C(=O)O)cc1,"inconclusive [inhibitor, full curve, poor fit]"
14,CCCCOC(=O)C1=C(C)NC2(O)c3ccccc3C(=O)C12O (centres undefined),"inconclusive [inhibitor, partial curve]"
15,Cc1cc(C)n(-c2nc3ccccc3nc2Nc2ccc(Cl)c(C(=O)OC(C)C)c2)n1,"inconclusive [inhibitor, partial curve, poor fit]"
16,O=C(CNc1ccc(F)cc1)c1ccccc1,inactive
17,CC(C)CNC(=O)N1[C@H](c2cccs2)[C@@H](C)C(=O)[C@@H](C)[C@@H]1c1cccs1,inactive
18,CCn1c(=N)n(CCOc2ccc(Br)cc2)c2ccccc21,inactive
19,Cc1ccc(-n2c(=O)[nH]c3cc(C(=O)NCc4ccccc4)ccc3c2=O)cc1,"inconclusive [inhibitor, partial curve]"
20,Cc1oc(-c2ccccc2Cl)nc1Cn1c(SCc2cccc(F)c2)nc2cccnc21,inactive
21,COc1cccc(/C=C/C(=O)c2ccc(C)c([N+](=O)[O-])c2)c1,inactive
22,N#CC1=C(N)C2=CCCC[C@H]2[C@H](c2ccc(Br)cc2)C1(C#N)C#N,"inconclusive [inhibitor, partial curve]"
23,COc1ccc(CCN2C(=S)N(C)C(=O)C2CC(=O)Nc2ccc(OC)cc2)cc1 (centres undefined),"inconclusive [inhibitor, single point]"
